Measured values from PMC4336329 (PLoS ONE, 2015).
Among all 310,000 compounds or so, about 14,000 (4.5%) showed an effect of 50% or more. The effect is printed as a negative number. The list shows a part of the results.

Molecular target: human ether-à-go-go-related gene (hERG) potassium channel (human, UniProt Q12809)
Experiment: primary screen, population patch clamp on CHO cells stably expressing hERG
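Further: peak tail current of the secondary pulse compared with the same well before compound.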

Sequence of human ether-à-go-go-related gene (hERG) potassium channel (Q12809 whole entry, looked up): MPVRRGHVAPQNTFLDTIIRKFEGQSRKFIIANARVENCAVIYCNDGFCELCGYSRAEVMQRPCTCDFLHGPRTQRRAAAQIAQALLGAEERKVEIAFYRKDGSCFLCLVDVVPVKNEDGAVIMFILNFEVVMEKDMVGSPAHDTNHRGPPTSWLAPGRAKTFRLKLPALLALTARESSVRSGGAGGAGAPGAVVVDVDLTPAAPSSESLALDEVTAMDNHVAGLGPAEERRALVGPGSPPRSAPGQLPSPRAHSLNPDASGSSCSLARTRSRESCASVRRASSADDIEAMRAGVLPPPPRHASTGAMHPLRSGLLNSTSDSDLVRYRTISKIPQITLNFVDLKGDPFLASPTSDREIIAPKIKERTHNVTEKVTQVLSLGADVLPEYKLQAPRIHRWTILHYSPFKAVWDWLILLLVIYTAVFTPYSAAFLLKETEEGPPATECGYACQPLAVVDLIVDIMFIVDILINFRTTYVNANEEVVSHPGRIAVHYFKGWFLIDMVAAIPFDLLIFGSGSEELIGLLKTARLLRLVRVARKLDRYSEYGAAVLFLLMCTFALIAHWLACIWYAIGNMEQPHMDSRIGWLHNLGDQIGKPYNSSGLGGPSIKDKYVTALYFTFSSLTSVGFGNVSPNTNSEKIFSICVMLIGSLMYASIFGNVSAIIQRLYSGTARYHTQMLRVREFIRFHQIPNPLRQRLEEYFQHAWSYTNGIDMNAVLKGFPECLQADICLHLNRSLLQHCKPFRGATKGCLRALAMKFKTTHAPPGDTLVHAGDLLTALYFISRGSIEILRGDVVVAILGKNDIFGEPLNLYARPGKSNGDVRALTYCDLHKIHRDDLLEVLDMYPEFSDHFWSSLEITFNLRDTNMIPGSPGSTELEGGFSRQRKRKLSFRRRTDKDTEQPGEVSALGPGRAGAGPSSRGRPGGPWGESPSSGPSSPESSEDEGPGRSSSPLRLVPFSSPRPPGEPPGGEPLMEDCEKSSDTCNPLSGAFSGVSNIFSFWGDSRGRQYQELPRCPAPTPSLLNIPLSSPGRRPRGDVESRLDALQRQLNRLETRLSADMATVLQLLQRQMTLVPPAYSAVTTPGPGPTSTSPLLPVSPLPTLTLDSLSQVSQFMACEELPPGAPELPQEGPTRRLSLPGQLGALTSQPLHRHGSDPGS

Compound | hERG current change (%, negative = inhibition) at 10uM [%]
O=S(=O)(c1cccc(NC(=S)NCc2ccco2)c1)N1CCOCC1 | 13.2
CCN(CC)CCOC(=O)C1(c2ccc(OC)c(OC)c2)CCCC1.Cl | -16.9
COc1ccc2[nH]cc(C(=O)CN3CCN(C(=O)c4ccco4)CC3)c2c1 | -21.5
Oc1ccc(-c2nccc(-c3ccc(Cl)cc3Cl)n2)cc1 | 1.43
Cc1ccc(-c2nn(-c3ccccc3)cc2C(=O)NCCCN2CCCC2=O)cc1 | -17.1
CC1=N/C(=C\c2ccc([N+](=O)[O-])cc2)C(=O)N1c1ccc(Br)c(C)c1 | 8.76
CC1COc2c(N3CCN(C)CC3)c(F)cc3c(=O)c(C(=O)O)cn1c23 (stereo not drawn) | 18.2
CCc1ccc(Nc2n[n+](-c3ccccc3)c(-c3c(Cl)cccc3Cl)s2)cc1.[Cl-] | -27.5
COc1ccc(NC2SC(=O)N(CC(=O)O)C2=O)cc1 (stereo not drawn) | 12.9
CCCCn1c(SCC(N)=O)nc2sc3c(c2c1=O)CCC3 | 2.85
CC(C)(C)C(=O)Nc1ccnn1C1CCN(C(=O)c2ccc(Cl)cc2F)CC1 | 6.16
Cc1ccc(Nc2nnc(-c3ccc(N4CCOCC4)c([N+](=O)[O-])c3)c3ccccc23)cc1 | -39.1
CC(Sc1nnc(-c2ccco2)n1C)C(=O)NC1CCCC1 (stereo not drawn) | 21.7
CC(O)[C@H]1CN=C(N)N1CCCCC1CCCCC1 (stereo partly drawn) | 14.8
c1cc(-c2nnc3n2CCCCC3)ccn1 | -0.982
CC/C(CC(=O)C(F)(F)F)=N\NC(=O)/C(C#N)=C/N(C)C | 22.1
COc1cccc(/C=N/NC(=O)c2cnn(-c3ccccc3)c2N)c1 | -10.6
CCOc1cccc(-c2c(C(=O)N/N=C(\C)c3cccnc3)nnn2-c2nonc2N)c1 | 8.96
Cc1cc(C)cc(Oc2coc3c(CN(C)C)c(O)ccc3c2=O)c1 | 0.854
COc1ccc(S(=O)(=O)N[C@H](C(=O)O)C(C)C)cc1 | 2.44
O=[N+]([O-])c1ccc2c(c1)ncn2CCc1ccccc1 | -8.59
CCN(CC)CC(O)COc1ccc2c(c1)c(C(C)=O)c(C)n2-c1ccccc1 (stereo not drawn) | -12.4
CCOc1ccccc1/C=N/NC(=O)c1nnn(-c2nonc2N)c1CN1CCCCCC1 | 12.5

Compound | hERG current change (%, negative = inhibition) at 10uM [%]
CC(/C=N/NC(=O)c1nn(C)c(C)c1Br)=C\c1ccccc1 | -53.8
Cc1ccc(N2C(=O)C3C4CC(=O)C(c5ccccc54)C3C2=O)cc1 (stereo not drawn) | 2.69
O=C(O)Cc1ccc(N=Cc2c(O)ccc3ccccc23)cc1 | -12.8
O=C(c1ccc(Cl)c(S(=O)(=O)N2CCOCC2)c1)N(Cc1nnc(-c2ccccc2Cl)o1)C1CC1 | -58.9
Cc1nnc(NC(=O)CSc2n[nH]c(-c3ccccc3)n2)s1 | 7.22
COc1ccc(N(CC(=O)N2CCc3ccccc32)S(=O)(=O)c2c(C)noc2C)cc1 | 10.9
COC(=O)/C=C/c1cnc2ccccc2c1 | 55.2
CCn1c(SCC(=O)c2ccc(CNC(C)=O)o2)nnc1-c1cccs1 | 3.72
Cc1ccc2c(COC(=O)c3n[nH]c4ccccc34)cc(=O)oc2c1 | 2.46
Cc1cc(C=O)c(C)n1-c1cccc(C(=O)O)c1 | 9.02
O=C(CCN1CCN(CCO)CC1)Nc1ccc(Br)cc1 | 1.76
Cl.c1coc(CNCC2OCCc3ccccc32)c1 (stereo not drawn) | -11
CCC(C)OC(=O)C1C(c2ccccc2)C(C(=O)O)C1c1ccccc1 (stereo not drawn) | -0.0678
Cc1ccc(C)c(CN2C(=O)C3CCCN3c3ccc(C#N)cc32)c1 (stereo not drawn) | -2.38
COc1ccc(C2=NOC(COC(=O)c3ccc4ccccc4n3)C2)cc1 (stereo not drawn) | 6.54
C=C1C(C(=O)Nc2ccc(OCC)cc2)C1C(=O)Nc1ccc(OCC)cc1 (stereo not drawn) | 17.3
NC(=O)C1CCN(C(=O)C(=O)c2cn(CC(=O)N3CCCCCC3)c3ccccc23)CC1 | 20.1
Cc1sc(NC(=O)Nc2ccccc2)c(C(N)=O)c1C | 13.6
c1ccc2c(c1)Oc1ccccc1S2 | 14.7
O=C(CCS(=O)(=O)c1ccccc1Cl)Nc1ccc(S(=O)(=O)Nc2ncccn2)cc1 | 9.5
CCOc1cc(N2CCOCC2)c(OCC)cc1NC(=O)C1CCCC1 | 10.5
COCCn1c(C)cc(C(=O)COC(=O)c2ccc(NC(=O)CC#N)cc2)c1C | 16.6
